# Laboratory results reported in article PMC5836133.
# The list shows a part of the results. At the low end of the ranking, values are background and their order means little.
# Tested on: T1, GST-NbGlk1(82-244)
# T1 sequence: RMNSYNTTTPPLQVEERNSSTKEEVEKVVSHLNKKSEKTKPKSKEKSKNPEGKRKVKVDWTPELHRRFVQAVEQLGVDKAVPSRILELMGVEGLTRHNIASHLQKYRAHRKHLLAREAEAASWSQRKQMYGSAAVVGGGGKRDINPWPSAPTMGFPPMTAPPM
# Test: protein-binding microarray;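 further: rank-based score ranging −0.5 to +0.5 with E above 0.45 taken as significant binding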
# Details: NbGlk1 is a Golden2-like transcription factor of Nicotiana benthamiana; high values mean tight binding; most listed sequences are background and not binding sites; double strand, one strand shown
row,Sequence,binding signal [E-score]
1,ATCCCGGG,0.0515
2,CACACCCA,-0.104
3,AGTGGGGC,-0.275
4,ATCTTACA,0.258
5,AAGTTTGT,-0.138
6,ATTACGAC,0.351
7,AGCAGCAT,-0.0713
8,AAAACACT,-0.0235
9,AGTATCAA,0.144
10,ATAAAAAC,0.119
11,ACGCGACC,-0.145
12,AAAAGTGC,-0.111
13,AACGCAGT,-0.176
14,ATCACAAC,0.135
15,AATATTAG,0.209
16,ATACATCC,0.0086
17,AGTTTTGA,0.0845
18,AGTCACCA,-0.186
19,AACCAACT,-0.058
20,AGACGTCC,-0.227
21,AGATATGG,0.373
22,AAATTCCC,0.294

row,Sequence,binding signal [E-score]
1,ATTCAGGC,-0.0809
2,ACTAATAA,0.0723
3,ACGCACCA,-0.299
4,ACGATAGG,-0.0796
5,ACGCTATG,-0.0034
6,ATGGAACA,-0.0391
7,ATTCATTA,0.0671
8,CAACATGC,-0.0951
9,AAGATGCC,-0.106
10,AAAAGACC,-0.287
11,AGCGCGAT,0.325
12,ACAAAGGG,-0.0988
13,ACACCGGA,0.0311
14,AGGTGATC,0.102
15,ACCGACCT,-0.263
16,ACTAAACT,-0.0324
17,AAAATTCG,0.282
18,CACCCTCG,-0.072
19,ACTTGCAT,0.085
20,AGAGTGGG,-0.296
21,AGTTCACC,-0.198
22,AATGCCAC,-0.146

row,Sequence,binding signal [E-score]
1,AGGTCCAA,-0.283
2,AGACATAT,0.0634
3,CAAATGAA,0.0959
4,AATCTAAG,0.402
5,AACTCAGT,-0.106
6,ACCTCTCG,-0.121
7,ACGGTGTG,-0.136
8,AATAGGCT,-0.0752
9,ACGATTTG,0.264
10,ATAATTTC,0.227
11,AAGTACTC,-0.0934
12,CAATGAGC,-0.259
13,ATGCGAAT,0.337
14,ACATAGAG,-0.00584
15,AACTGGGA,-0.201
16,AGGCCCAA,-0.368
17,CAACGGTA,0.0174
18,ACTTAATA,0.129
19,ATCACGTA,0.257
20,ACACTATA,0.085
21,ATCAGGTG,0.0759
22,AGACTAGG,-0.128

row,Sequence,binding signal [E-score]
1,AGCCTCCT,-0.199
2,ACAGAACG,-0.07
3,CACCAATG,-0.194
4,ACTCTGCG,0.0535
5,ACCCGAGC,-0.118
6,ACACAGCG,-0.11
7,ATAGTTCC,-0.02
8,AGAGTGAC,-0.128
9,AAAATGAC,-0.0701
10,ATGCAGTG,0.0328
11,CACCGCGG,-0.195
12,CACCCAGG,-0.273
13,AAAAGCTC,-0.112
14,AAGGGGAC,-0.252
15,ACAGCAAG,-0.0307
16,ATCTCTTA,0.337
17,AAGTCCTA,-0.141
18,AAAGTTGT,-0.0761
19,CAAAGCAA,0.0857
20,AAACAAGA,0.0192
21,CAAGGGAG,-0.194
22,AAACTTAA,0.0893

row,Sequence,binding signal [E-score]
1,AAGTCCCG,-0.16
2,ATCCAGCA,0.25
3,AAGACCCA,-0.281
4,AAACGCCC,-0.212
5,AAGAACGA,-0.0638
6,AGTTCCAG,-0.0456
7,AAGGGGTG,-0.222
8,AAGATGTG,-0.137
9,AAAGATGA,-0.034
10,ACGGGAGA,-0.0968
11,AATAAGCT,0.0279
12,AAGGCCTG,-0.313
13,AATATGCG,0.172
14,AAATTCAT,0.0564
15,CAAGGGGA,0.0351
16,ATTTGGTA,0.177
17,ACTTGCGA,0.162
18,CAAGGAAA,0.0213
19,AATGTTAC,-0.024
20,ACGTCCTG,-0.205
21,CACTAAAA,0.0918
22,AATGGTAT,0.0957
